The whole screen tested about 130,000 compounds, of which about 1,900 (1.5%) were called active. This list was built around the results that the source calls inconclusive (neither active nor inactive); the mix of calls is not that of the screen. Calls come from the whole dose curve; as a rule, active = well fitted cell-killing curve with a large enough effect; inconclusive = small, poorly fitted or top-dose-only effect; inactive = no such curve, though single readings can be large or run the other way. A potency beside an inconclusive call is a rough fit, not a confirmed value.
Assay: qHTS Screen for Compounds that Selectively Target Cancer Cells with p53 Mutations: Cytotoxicity of p53ts Cells at the Nonpermissive Temperature; note: nearly all actives have a fitted effect of over 55% in size
Conditions: H1299-p53A138V viability at 39C, ATP luminescence, 24 h; activity change, negative = cell killing: at 46.1 µM (top of the series)
% is set by controls: 0 for no effect and ±100 for the full control effect; potency is the fitted concentration of half-maximal effect; tags give direction and shape of the fitted curve.

SMILES	Potency	activity change, negative = cell killing
CCCCN(CC)CCCNC(=O)Nc1sc2nc3n(c(=O)c2c1C)CCC(C)CC3 (stereo not drawn)	inconclusive: 31.6 µM [cytotoxic, single point]	–
O=C(NCC(c1cccs1)N1CCOCC1)c1ccc(Cl)c([N+](=O)[O-])c1 (stereo not drawn)	inconclusive: 10 µM [cytotoxic, partial curve, poor fit]	–
c1ccc(-c2cccc(N3CC[C@@]4(CCCNC4)C3)c2)cc1	active: 15.8 µM	–
CCOC(=O)c1cc(S(=O)(=O)N2CCN(c3ccc(C)cc3C)CC2)[nH]n1	inconclusive: 15.8 µM [cytotoxic, partial curve]	–
COc1ccc(NC(=O)/C=C\c2ccc(Cl)cc2)cc1	inconclusive: 12.6 µM [cytotoxic, partial curve]	–
COc1ccc(N2CC(NC(=O)c3cc4ccccc4o3)CC2=O)cc1 (stereo not drawn)	–	inconclusive: -32.8% [cytotoxic]
COC(=O)c1c(NC(=O)Nc2ccc(Cl)cc2)sc(C)c1C	inconclusive: 31.6 µM [cytotoxic, single point]	–
CCCOc1ccc(C(=O)Nc2ccc(Cl)c(-c3nc4ncccc4o3)c2)cc1	inconclusive: 20 µM [cytotoxic, partial curve]	–
CCCc1c(-c2ccc(O)cc2)nn(-c2ccc(O)cc2)c1-c1ccc(O)cc1	inconclusive: 25.1 µM [cytotoxic, single point]	–
O=C(NCc1cccnc1)/C(=C\c1ccc(-c2cccc(Cl)c2)o1)S(=O)(=O)c1ccccc1	inconclusive: 25.1 µM [cytotoxic, single point]	–
CCN(CCCNC(=O)CSc1cc(=O)n(CC)c2ccccc12)c1cccc(C)c1	inconclusive: 31.6 µM [cytotoxic, single point]	–
COC(=O)C(C)n1nnc2sc(-c3ccccc3)cc2c1=O (stereo not drawn)	inconclusive: 15.8 µM [cytotoxic, single point]	–
CCc1ccc(C2c3c(oc4ccc(F)cc4c3=O)C(=O)N2c2nc(C)c(C(=O)OC)s2)cc1 (stereo not drawn)	inactive	–
NCCCC(=O)N1c2ccccc2Sc2ccccc21	inactive	–
O=C(Nc1c(C(=O)O)oc2ccccc12)c1ccc(C(F)(F)F)cc1	inconclusive: 0.316 µM [cytotoxic, partial curve]	–
Cc1ccc(-c2nc(CCNC(=O)C(=O)Nc3ccc(C)cc3C)cs2)cc1	inconclusive: 15.8 µM [cytotoxic, partial curve]	–
COc1cc(C2CC(=O)Nc3cc4c(cc32)OCCO4)cc(Br)c1OC (stereo not drawn)	inconclusive: 0.316 µM [cytotoxic, full curve, poor fit]	–
COc1cc(NC(=O)CSc2ncc(S(=O)(=O)c3ccc(Br)cc3)c(=O)[nH]2)cc(OC)c1	inconclusive: 25.1 µM [cytotoxic, single point]	–
CC1(COc2ccc(C[C@H]3SC(=O)NC3=O)cc2)CCCCC1	active: 39.8 µM	–
O=c1c(-c2ccc(Cl)cc2)nc2cnc(N3CCOCC3)nc2n1CCc1ccccc1	inactive	–
CCN(CC)c1nc(N)c2c(N)n(-c3ccccc3C)c(=S)c(C#N)c2c1C#N	inactive	–
CCCC(c1nnnn1Cc1ccc(F)cc1)N1CCN(C2CCCCC2)CC1 (stereo not drawn)	active: 20 µM	–

SMILES	Potency	activity change, negative = cell killing
CCCc1cc(C(=O)Nc2nccs2)cs1	inconclusive: 10 µM [cytotoxic, partial curve]	–
COc1ccc(-c2cc(O)cc(O)c2)cc1	inconclusive: 12.6 µM [cytotoxic, partial curve]	–
COc1ccc(C2C=C(c3ccccc3)Nc3nc(NC(=O)/C=C/c4ccccc4)nn32)cc1 (stereo not drawn)	inconclusive: 5.01 µM [cytotoxic, full curve, poor fit]	–
Cc1ccc(Cn2cccc(NC(=O)c3ccco3)c2=O)cc1	inactive	–
CCN(CC)c1ccc(NC(=O)c2cccc(C)c2OC)c(C)c1	inactive	–
Cc1cccc(N2CCN(S(=O)(=O)c3cc(C(=O)Nc4ccccc4Cl)ccc3F)CC2)c1C	inconclusive: 0.005 µM [cytotoxic, full curve, poor fit]	–
CC(C)(C)OC(=O)N1CCC(c2c(C(=O)NCCN3CCC(Cc4ccccc4)CC3)cnn2-c2ccc(F)cc2)CC1	active: 25.1 µM	–
Cc1ccc(CCNC(=O)C2CCN(Cc3nc(-c4ccccc4C)oc3C)CC2)cc1	inconclusive: 25.1 µM [cytotoxic, single point]	–
CC(=O)c1cccc(NC(=O)c2noc3c2CCCC3)c1	inconclusive: 15.8 µM [cytotoxic, single point]	–
CCCCOC(=O)c1ccc(NC(=O)c2nn(C)cc2Br)cc1	inconclusive: 12.6 µM [cytotoxic, single point]	–
Cc1ccc2nc(-c3ccccc3)cn2c1	active: 0.631 µM	–
CCOc1cccc2c1OC(c1cc(OC)c(OC)c(OC)c1)N1N=C(c3ccc(C)o3)CC21 (stereo not drawn)	inconclusive: 7.08 µM [cytotoxic, partial curve]	–
Cc1ccc(C)c(N2CCN(CCCNC(=O)c3cnn(-c4ccccc4Cl)c3C3CCN(C(=O)OC(C)(C)C)CC3)CC2)c1	active: 15.8 µM	–
CCOc1ccc(Sc2cc(C(=O)NC(C)c3ccccc3)c3ccccc3n2)cc1 (stereo not drawn)	inconclusive: 1.26 µM [cytotoxic, full curve]	–
O=C(CSc1nnc2sc3ccccc3n12)c1ccco1	inactive	–
COc1ccc(Nc2nc(-c3ccc(C)cc3)nc3ccccc23)c(OC)c1	inconclusive: 15.8 µM [cytotoxic, partial curve]	–
COc1ccc2c(c1)c1c(c(=O)n(Cc3ccccc3)c(=O)n1CC(=O)NCc1ccccc1Cl)n2C	inconclusive: 0.794 µM [cytotoxic, single point]	–
CCN1CCN(c2nc3c(S(=O)(=O)c4ccc(Br)cc4)nnn3c3ccsc23)CC1	inactive	–
COc1ccc(OC)c2sc(N3CCN(C(=O)C(C)(C)C)CC3)nc12	active: 7.94 µM	–
O=C(NCCc1ccccc1Cl)c1ccc(Cn2c(=O)c3cccn3c3cccnc32)cc1	inconclusive: 6.31 µM [cytotoxic, partial curve, poor fit]	–
COc1ccc(-c2nc(C)c(CCNC(=O)C(=O)Nc3ccccc3OC)s2)cc1	inconclusive: 25.1 µM [cytotoxic, single point]	–

From PubChem BioAssay AID902 (National Center for Advancing Translational Sciences (NCATS), 2007)
